# Reference: PubChem BioAssay AID1476 (National Center for Advancing Translational Sciences (NCATS), 2009)
# The campaign covered roughly 200,000 compounds. About 4,500 (2.2%) were called active. The inconclusive results got no clear call from the source; some entries with a clear call stand among them for comparison. The call rests on the fitted dose curve; in most records, active means well fitted inhibition curve with a large enough effect; inconclusive means small, poorly fitted or top-dose-only effect, or effect the other way; inactive means flat fitted curve, though single readings scatter. Potencies of inconclusive entries are doubtful fits and often do not repeat.
# Target: Cruzipain (Trypanosoma cruzi) (UniProt P25779)
# Sequence of UniProt P25779 (P25779 whole entry, looked up): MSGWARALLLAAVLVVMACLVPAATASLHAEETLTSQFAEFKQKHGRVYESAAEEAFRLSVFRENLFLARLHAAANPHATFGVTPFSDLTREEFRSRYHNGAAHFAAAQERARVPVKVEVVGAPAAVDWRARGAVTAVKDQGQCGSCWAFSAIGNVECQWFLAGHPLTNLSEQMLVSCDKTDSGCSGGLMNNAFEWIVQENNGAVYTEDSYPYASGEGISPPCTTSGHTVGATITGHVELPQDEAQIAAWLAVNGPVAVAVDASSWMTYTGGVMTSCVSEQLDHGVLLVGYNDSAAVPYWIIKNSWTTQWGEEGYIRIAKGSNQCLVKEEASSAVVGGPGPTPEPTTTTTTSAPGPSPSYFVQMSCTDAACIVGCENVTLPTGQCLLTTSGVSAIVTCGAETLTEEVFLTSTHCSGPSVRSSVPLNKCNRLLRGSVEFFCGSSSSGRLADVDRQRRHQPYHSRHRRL
# Assay: qHTS Assay for Promiscuous and Specific Inhibitors of Cruzain (without detergent); further: nearly all actives have a fitted effect of over 40% in size;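 on max response, negative = inhibition: plate controls were enzyme without inhibitor for no effect and buffer without enzyme for full effect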
# Conditions: purified cruzain, Z-FR-AMC fluorescence, no detergent
# Outline: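 Detergent-free condition (0.00005% Triton X-100) in acetate buffer pH 5.5 with DTT. 1.5 nM enzyme and compound were pre-mixed 15 min, then 2 uM Z-FR-AMC substrate added; reaction progress from fluorescence change between first and third reads (60 s).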
# Potency means the concentration at half of the fitted maximal effect; tags describe the fitted curve by direction and shape.
SMILES,Potency,"max response, negative = inhibition"
COc1ccc(-c2[nH]c(-c3ccc(OC)c(OC)c3)nc2SCC(=O)Nc2ccccc2)cc1,"inconclusive: 10 µM [activator, partial curve]",–
COc1ccc(C(=O)Nn2c(SCc3cccc([N+](=O)[O-])c3)nc3ccccc3c2=O)cc1,"inconclusive: 39.8 µM [inhibitor, single point]",–
Cc1cccc(NC(=O)c2oc3ccc(S(=O)(=O)N4CCCCC4)cc3c2C)c1C,–,inactive: -9.74%
CC(=O)NCCn1c(SCc2cc(F)ccc2F)nc2ccccc2c1=O,"inconclusive: 39.8 µM [activator, single point]",–
COc1ccc(OC)c(C2C=C(C34CC5CC(CC(C5)C3)C4)NC(=S)N2)c1 (stereo not given),active: 25.1 µM,–
COC(=O)CN1C(=O)S/C(=C/c2ccc(N3CCCCC3)o2)C1=O,"inconclusive: 39.8 µM [activator, single point]",–
O=C(c1cccc(Cl)c1)N1CCC(c2nc3c(nnn3Cc3ccc(F)cc3F)c(=O)[nH]2)CC1,"inconclusive: 39.8 µM [activator, single point]",–
COc1ccc(/C=C/c2nc3ccccc3n2Cc2ccccc2OC)cc1,"inconclusive: 39.8 µM [inhibitor, single point]",–
COc1cc(C(=O)Nc2ccccc2OCc2cc(=O)n3cc(C)sc3n2)cc(OC)c1OC,–,inactive: -11.2%
O=C(NCCc1ccccc1)c1cc(-c2ccc3c(c2)OCO3)on1,"inconclusive: 39.8 µM [inhibitor, single point]",–
COc1cc2c(cc1NC(=O)CN1C(=O)NC3(CCc4ccccc43)C1=O)oc1ccccc12 (stereo not given),"inconclusive: 31.6 µM [inhibitor, single point]",–
Cn1nnc(NC(=O)c2ccco2)n1,–,inactive: 4.17%
CCSc1nnc([C@H](Cc2ccccc2)NC(=O)OC(C)(C)C)o1,–,inactive: -3.67%
CCCCOc1cccc(C(=O)N(Cc2ccc(Cl)cc2)C2CCS(=O)(=O)C2)c1 (stereo not given),"inconclusive: 25.1 µM [activator, partial curve]",–
COc1ccc(CCNC(=O)CSc2nnc(-c3ccc(C)cc3)c(-c3ccc(C)cc3)n2)cc1OC,–,inactive: 1.74%
COc1ccc(C(=O)Nc2oc(-c3ccccc3)c(-c3ccccc3)c2C#N)cc1OC,–,inactive: -4.25%
Cc1ccccc1Cc1c(C)nc2nc(SCC(=O)NC(C)c3ccccc3)nn2c1C (stereo not given),–,inactive: -8.88%
CCOC(=O)c1c(C)oc2nc(C)nc(NCCCN3CCN(c4cccc(C)c4)C(C)C3)c12 (stereo not given),–,inactive: -1.6%
O=C(O)[C@@H]1[C@@H]2C[C@H]([C@@H](Br)[C@H]2N2C(=O)CCC2=O)[C@@H]1C(=O)O,–,inactive: 11.1%
COc1ccccc1N1CCN(C(=O)CSc2nc(-c3ccc(C(C)C)cc3)no2)CC1,"inconclusive: 6.31 µM [activator, single point]",–
O=C(NCc1ccc(Cl)cc1)C1CCCN(c2ncnc3onc(-c4ccc(F)cc4)c23)C1 (stereo not given),–,inactive: -12.1%
COc1ccc(-c2noc(-c3ccccc3NC(=O)c3cc(OC)c(OC)c(OC)c3)n2)cc1,–,inactive: 1.19%

SMILES,Potency,"max response, negative = inhibition"
C=CCN1C(=O)/C(=C\C=C2\N(C)c3ccccc3C2(C)C)SC1=S,"inconclusive: 31.6 µM [inhibitor, single point]",–
O=C(NC1CCCC1)c1ccc2c(c1)N(Cc1ccc(F)cc1)C(=O)c1ccccc1S2,"inconclusive: 31.6 µM [inhibitor, single point]",–
CCc1cccc(NC(=O)CCS(=O)(=O)c2ccc(C)cc2)c1,–,inactive: -16.8%
Cc1cc(-c2cc(-c3ccc(Cl)cc3)nc(N)c2C#N)co1,"inconclusive: 31.6 µM [activator, single point]",–
O=c1oc2ccc(Br)cc2cc1-c1nc2ccccc2o1,"inconclusive: 39.8 µM [inhibitor, single point]",–
COCCNC(=O)CSc1nc(-c2ccccc2)c(-c2ccccc2)o1,"inconclusive: 25.1 µM [activator, partial curve]",–
O=C(Cn1cc(SCc2ccccc2Cl)c2ccccc21)N1CCCCCC1,"inconclusive: 31.6 µM [inhibitor, single point]",–
CCNC(=O)COc1ccc(Br)cc1Cl,–,inactive: 13.6%
O=C(NCCC1=CCCCC1)c1ccc2c(c1)N(Cc1ccccc1)C(=O)c1ccccc1S2(=O)=O,"inconclusive: 39.8 µM [inhibitor, single point]",–
COc1ccc(CCn2c(C)cc(C(=O)CSc3nnnn3-c3ccccc3)c2C)cc1,"inconclusive: 31.6 µM [inhibitor, single point]",–
CCNc1ncc2nc(-c3cccs3)c(=O)n(Cc3cccs3)c2n1,–,inactive: 2.45%
CC(=O)Nc1ccc(S(=O)(=O)N2CCN(CCCOc3cc(C)ccc3C)CC2)cc1,"inconclusive: 39.8 µM [activator, single point]",–
O=C(COc1ccc(Cl)cc1)NC1=NN(c2ccccc2)C(=O)C1,"inconclusive: 25.1 µM [inhibitor, single point]",–
Cc1ccc(SCC(=O)Nc2ccc3oc(-c4cccc(C)c4)nc3c2)cc1,"inconclusive: 25.1 µM [inhibitor, partial curve]",–
COc1ccc(CCNC(=O)C(=O)NCC(c2cccs2)S(=O)(=O)c2ccccc2)cc1 (stereo not given),–,inactive: 17.8%
COc1cccc(-c2nc(CS(=O)CC(=O)N3CCN(c4cccc(C(F)(F)F)c4)CC3)c(C)o2)c1 (stereo not given),"inconclusive: 15.8 µM [activator, partial curve]",–
Cc1noc(/C=C/N(C)C)c1S(=O)(=O)N1CCCC(C(=O)NCc2ccco2)C1 (stereo not given),–,inactive: 14.2%
O=C(Nc1nc(-c2ccccc2)c(-c2ccccc2)s1)c1ccc(S(=O)(=O)N(CCCl)CCCl)cc1,active: 3.98 µM,–
O=C(Nc1ccc2c(c1)N(C1CCCC1)C(=O)c1ccccc1S2)c1ccccc1,"inconclusive: 39.8 µM [inhibitor, single point]",–
CCCCCCc1ccc(OCC(=O)OC)cc1OCC(=O)OC,"inconclusive: 31.6 µM [activator, partial curve]",–
COc1ccc(NC(=O)CCCS(=O)(=O)c2nc(-c3ccc(OC)c(OC)c3)cc(C(F)(F)F)n2)cc1OC,"inconclusive: 39.8 µM [activator, single point]",–
COc1ccc(C2CC(=O)N3CN(C4CCCCC4)CSC3=C2C#N)cc1 (stereo not given),–,inactive: 12%

SMILES,Potency,"max response, negative = inhibition"
C=CCn1c(SCC(=O)NCc2ccc3c(c2)OCO3)nc2scc(-c3ccc(F)cc3)c2c1=O,"inconclusive: 31.6 µM [inhibitor, single point]",–
Cc1ccc(Cn2c(=O)c3ccccc3n3c(-c4ccccc4)nnc23)cc1,–,inactive: 6.27%
COCCNC(=O)COC(=O)/C=C/c1c(C)nn(Cc2ccc(Cl)cc2Cl)c1Cl,"inconclusive: 31.6 µM [activator, partial curve]",–
CCc1ccc(CNC(=O)CSCc2cnn(-c3ccccc3)c2-n2cccc2)cc1,–,inactive: 14.2%
CC1CCN(S(=O)(=O)c2ccc3c(c2)c(=O)c(C(=O)NC2CCCC2)cn3C)CC1,"inconclusive: 20 µM [activator, partial curve]",–
COc1ccc(-n2c(=O)c3c4c(sc3n(Cc3cc(=O)n5c(C)cccc5n3)c2=O)CCC4)c(OC)c1,"inconclusive: 39.8 µM [activator, single point]",–
Cc1ccc(NC(=O)c2ccco2)c(OCc2cc(=O)n3cc(C)sc3n2)c1,–,inactive: 3.89%
Cc1cc(Br)cc(Cl)c1OCC(=O)NC(=O)NCc1ccccc1,"inconclusive: 39.8 µM [inhibitor, single point]",–
CC(=O)N1CCCc2cc(S(=O)(=O)N3CCCC(C(=O)NCc4ccc(Cl)cc4)C3)ccc21 (stereo not given),"inconclusive: 25.1 µM [activator, single point]",–
Cc1cc(-n2c(=O)c(C#N)cc3c(=O)n4cccc(C)c4nc32)no1,"inconclusive: 31.6 µM [activator, partial curve]",–
Cc1cc(O)c(C(c2cccc(Cl)c2)N2CCN(c3ccccc3)CC2)c(=O)n1Cc1ccco1 (stereo not given),"inconclusive: 31.6 µM [inhibitor, single point]",–
COc1ccccc1NC(=O)CSc1ncc2c(n1)-c1cc(Cl)ccc1N(C)S2(=O)=O,"inconclusive: 39.8 µM [inhibitor, single point]",–
CCc1ccc(-n2c(C)nc3cc(C(=O)NCCc4ccccc4)ccc32)cc1,–,inactive: 12.5%
COc1ccccc1NS(=O)(=O)c1cccc(NC(=O)c2ccc3ccccc3n2)c1,"inconclusive: 39.8 µM [inhibitor, single point]",–
Cc1ccc(C(=O)NC(=S)Nc2ccc(S(=O)(=O)N(C)c3ccccc3)cc2)cc1,"inconclusive: 12.6 µM [inhibitor, single point]",–
CCCCC(=O)Nc1ccc(C(=O)NNC(=O)c2ccc(C)c(Br)c2)cc1,"inconclusive: 31.6 µM [inhibitor, single point]",–
N=C1CCC[C@@H]1C(=S)SCCC(N)=O,–,inactive: 1.93%
COc1ccccc1N1CCN(C(=O)COc2cc(C)ccc2C)CC1,"inconclusive: 31.6 µM [activator, single point]",–
COc1ccc(-c2nc3cnc(Oc4cccc(Cl)c4)nc3n(C3CC3)c2=O)cc1,–,inactive: 27.6%
CCN(CC)CCn1cnc2c([nH]c3cccc(OC)c32)c1=O,"inconclusive: 25.1 µM [activator, single point]",–
COC(=O)NC(=S)Nc1ccc(Oc2ccc(Cl)cc2Cl)c(Cl)c1,active: 25.1 µM,–
